The list shows a part of the results. Single values of this set are uncertain. Values with irradiation are relative to irradiated vehicle.
test system: A549-Dual; experiment: NF-kB reporter (SEAP) activity, viability-corrected, relative to vehicle (fold change vs vehicle); higher = more activation of STING-IRF / NF-kB immune response reporter; details: 3 µM; irradiation: 8 Gy/4 fr
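Also: viability correction based on the alamar blue assay, with concentrations leaving 10% survival or less dropped.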

SMILES	NF-kB reporter
CC1(C)CCC(CN2CCN(c3ccc(C(=O)NS(=O)(=O)c4ccc(NCC5CCOCC5)c([N+](=O)[O-])c4)c(Oc4cnc5[nH]ccc5c4)c3)CC2)=C(c2ccc(Cl)cc2)C1 [Venetoclax (ABT-199, GDC-0199)]	0.742
Cc1ccc(NC(=O)c2ccc(CN3CCN(C)CC3)cc2)cc1Nc1nc(-c2cccnc2)cs1 [Masitinib (AB1010)]	0.969
CCc1cc(/C(C)=N/OCc2ccc(C3CCCCC3)c(C(F)(F)F)c2)ccc1CN1CC(C(=O)O)C1 [BAF312 (Siponimod)]	0.535
CN(C)C(=O)COC(=O)Cc1ccc(OC(=O)c2ccc(NC(=N)N)cc2)cc1.CS(=O)(=O)O [Camostat Mesilate]	1.33
Nc1nc(=S)c2[nH]cnc2[nH]1 [Thioguanine]	0.732
OCC1OC(Oc2cc(O)cc(/C=C/c3ccc(O)cc3)c2)C(O)C(O)C1O (stereo not drawn) [Polydatin]	1.97
COc1cc(N2CCC(N3CCN(C)CC3)CC2)ccc1Nc1ncc(Cl)c(Nc2ccccc2P(C)(C)=O)n1	1.09
Cc1cccn2c(=O)c(-c3nnn[n-]3)cnc12.[K+] [Pemirolast potassium]	0.874
Cc1cccc(N(C)C(=S)Oc2ccc3ccccc3c2)c1 [Tolnaftate]	0.863

same assay, conditions: 3 µM; irradiation: none

SMILES	NF-kB reporter
C=CC(=O)Nc1cc(Nc2nccc(-c3cn(C)c4ccccc34)n2)c(OC)cc1N(C)CCN(C)C [Osimertinib (AZD9291)]	0.874
CC1CC2C3CCC4=CC(=O)C=CC4(C)C3(F)C(O)CC2(C)C1(O)C(=O)COP(=O)([O-])[O-].[Na+].[Na+] (stereo not drawn) [Dexamethasone Sodium Phosphate]	0.839
O=C(O)CCCN1CCC(OC(c2ccc(Cl)cc2)c2ccccn2)CC1.O=S(=O)(O)c1ccccc1 (stereo not drawn) [Bepotastine Besilate]	1.36
CC(=O)OC(C)C(C)C(=O)OCC12C3CC4(C)C(=CCC5C6(C)CCC(OC7OC(C(=O)[O][Na])C(OC8OC(CO)C(O)C(O)C8O)C(O)C7OC7OCC(O)C(O)C7O)C(C)(CO)C6CCC54C)C1CC(C)(C)C(O3)C2O (stereo not drawn) [Sodium Aescinate]	1.26
Nc1nc(CC(=O)Nc2ccc(CCNCC(O)c3ccccc3)cc2)cs1 (stereo not drawn) [Mirabegron]	1.01
O=C1OC(OC(=O)c2cccnc2Nc2cccc(C(F)(F)F)c2)c2ccccc21 (stereo not drawn) [Talniflumate]	0.845
CN1C(C(=O)Nc2ccccn2)=C(O)c2sccc2S1(=O)=O [Tenoxicam]	1.18
CCC(=O)NS(=O)(=O)c1ccc(-c2c(-c3ccccc3)noc2C)cc1 [Parecoxib]	0.883
CNCC(O)C(O)C(O)C(O)CO.Cc1c(Nc2ncccc2C(=O)O)cccc1C(F)(F)F [Flunixin Meglumin]	0.926
Cc1cncc(CN2CCC(=C3c4ccc(Cl)cc4CCc4cccnc43)CC2)c1.O=C(O)/C=C/C(=O)O [Rupatadine Fumarate]	0.826
COC(=O)CC(O)(CCCC(C)(C)O)C(=O)OC1C(OC)=CC23CCCN2CCc2cc4c(cc2C13)OCO4 (stereo not drawn) [Homoharringtonine]	4.46
CC(C(=O)[O-])c1ccc(CC2CCCC2=O)cc1.[Na+] (stereo not drawn) [Loxoprofen Sodium]	0.841
C=C1c2cccc(O)c2C(=O)C2=C(O)C3(O)C(=O)C(C(N)=O)=C(O)C(N(C)C)C3C(O)C12.Cl (stereo not drawn) [Methacycline HCl]	1.34
CC1CCC2(C(=O)OC3OC(COC4OC(CO)C(OC5OC(C)C(O)C(O)C5O)C(O)C4O)C(O)C(O)C3O)CCC3(C)C(=CCC4C5(C)CC(O)C(O)C(C)(CO)C5CCC43C)C2C1C (stereo not drawn) [Asiaticoside]	1.36
Nc1nc(F)nc2c1ncn2C1OC(CO)C(O)C1O (stereo not drawn) [Fludarabine]	0.771
O=NN(CCCl)C(=O)NC1CCCCC1 [Lomustine]	0.932
O=CC(O)C(O)C(O)C(O)COC1OC(CO)C(O)C(O)C1O (stereo not drawn) [Melibiose]	1.1
O.S=c1nc[nH]c2nc[nH]c12 [6-Mercaptopurine (6-MP) Monohydrate]	0.968
CC(C(=O)O)c1cccc(C(=O)c2ccccc2)c1 (stereo not drawn) [Ketoprofen]	0.942
CNC1CCC(c2ccc(Cl)c(Cl)c2)c2ccccc21.Cl (stereo not drawn) [Sertraline HCl]	0.801

SMILES	NF-kB reporter
CC1(C)OC2CC3C4CCC5=CC(=O)CCC5(C)C4(F)C(O)CC3(C)C2(C(=O)CCl)O1 (stereo not drawn) [Halcinonide]	0.946
CC(=O)OC12COC1CC(O)C1(C)C(=O)C(O)C3=C(C)C(OC(=O)C(O)C(NC(=O)OC(C)(C)C)c4ccccc4)CC(O)(C(OC(=O)c4ccccc4)C21)C3(C)C (stereo not drawn) [Docetaxel]	1.87
CCN(CC)Cc1cc(Nc2ccnc3cc(Cl)ccc23)ccc1O.Cl.Cl [Amodiaquine hydrochloride]	1.01
Cc1c(N)c(=O)n(-c2ccccc2)n1C [4-Aminoantipyrine]	0.892
Cn1cnc2c(F)c(Nc3ccc(Br)cc3F)c(C(=O)NOCCO)cc21	1.5
CC1(C)C2CCC1(C)C(O)C2 (stereo not drawn) [Borneol]	1.09
CC1CC2C3CCC4=CC(=O)C=CC4(C)C3(Cl)C(O)CC2(C)C1(OC(=O)c1ccco1)C(=O)CCl (stereo not drawn) [Mometasone furoate]	0.762
CCN(CC)CCCC(C)Nc1ccnc2cc(Cl)ccc12.O=P(O)(O)O.O=P(O)(O)O (stereo not drawn) [Chloroquine Phosphate]	0.922
COc1cc2c(cc1Cc1cccc(Cl)c1F)c(=O)c(C(=O)O)cn2C(CO)C(C)C (stereo not drawn) [Elvitegravir (GS-9137, JTK-303)]	1.13
O=c1[nH]c(=O)n(C2CC(O)C(CO)O2)cc1F (stereo not drawn) [Floxuridine]	1.42
CC1(C)CCC(CN2CCN(c3ccc(C(=O)NS(=O)(=O)c4ccc(NCC5CCOCC5)c([N+](=O)[O-])c4)c(Oc4cnc5[nH]ccc5c4)c3)CC2)=C(c2ccc(Cl)cc2)C1 [Venetoclax (ABT-199, GDC-0199)]	1.34
Cc1ccc(NC(=O)c2ccc(CN3CCN(C)CC3)cc2)cc1Nc1nc(-c2cccnc2)cs1 [Masitinib (AB1010)]	0.925
CCc1cc(/C(C)=N/OCc2ccc(C3CCCCC3)c(C(F)(F)F)c2)ccc1CN1CC(C(=O)O)C1 [BAF312 (Siponimod)]	0.863
CN(C)C(=O)COC(=O)Cc1ccc(OC(=O)c2ccc(NC(=N)N)cc2)cc1.CS(=O)(=O)O [Camostat Mesilate]	0.992
Nc1nc(=S)c2[nH]cnc2[nH]1 [Thioguanine]	0.716
OCC1OC(Oc2cc(O)cc(/C=C/c3ccc(O)cc3)c2)C(O)C(O)C1O (stereo not drawn) [Polydatin]	1.56
COc1cc(N2CCC(N3CCN(C)CC3)CC2)ccc1Nc1ncc(Cl)c(Nc2ccccc2P(C)(C)=O)n1	1.04
Cc1cccn2c(=O)c(-c3nnn[n-]3)cnc12.[K+] [Pemirolast potassium]	0.947
Cc1cccc(N(C)C(=S)Oc2ccc3ccccc3c2)c1 [Tolnaftate]	0.706
